Data as given in patent US20090306091A1, “ANTIMALARIAL THERAPY USING A COMBINATION OF SYNTHETIC ARTEMISININ DERIVATIVE AND BISQUINOLINE DERIVATIVE” (priority 2006, published 2009).

Assays:
female rabbits = test: Embryo-fetal assessment study in female rabbits, oral administration (ICH guideline, GLP); conditions: female rabbits, 90 mg/kg/day
female rats = test: Embryo-fetal assessment study in female rats, oral administration (ICH guideline, GLP); format: in vivo, rat; conditions: rats, oral
Source text: Further, abnormal findings viz., interventricular septal defect (5 fetuses), aortic arch dilated (6 fetuses), ductus arteriosus and/or pulmonary trunk narrowed (5 fetuses), spleen reduced in size (4 fetuses) were noticed.

In the case of `CC(C)(N)CNC(=O)CC1CCC2(CC1)OOC1(O2)C2CC3CC(C2)CC1C3` (stereo not drawn), the “found dead on day 19 pc” value (female rabbits) is reported as “one”, the labored respiration (female rabbits) is reported as “four” and the “NOEL (no observed effect level) for fetal organisms” value (female rats) is reported as 10 mg/kg body weight/day.
